Experimental findings from the RNAGym collection of RNA variant scans (doi:10.7554/elife.90254) are described below.

B1: OR4K15 (parent)
chain: GUUAACGGUCAUAGGCCAUGGAAACUAGGAGCACCAUUUCGCUGCCAGUGAAGAAAUGAACAAAGAAAAUCUGGGCCAGGCAGGCAUCAAAAGAAAUAGUCUUGCGCUCAACCAGAAAGUCUGUAAUCAUUUUAAGGGUA

The source gives no read counts; variants with many changes may rest on few reads.

In this series the parent is B1. The series is described as follows: self-cleavage, relative activity (ratio to wild type); higher = more cleavage; in vitro, sequencing; the parent is a self-cleaving ribozyme.
Turning to U72A U108A U122A, the self-cleavage was 0.

On to A90G U100C A129U, for which the self-cleavage amounted to 1.21.

Turning to U87C A90G U103C U124C U127C, the self-cleavage was determined as 0.04.

As for U72C C128G U133C, the self-cleavage stood at 0.14.

With A91G U103C A110G U132A, the self-cleavage stood at 0.06.

For U72C U100C A111G, the self-cleavage was 0.02.

On to U72C U87A A110G, for which the self-cleavage came to 0.03.

On to A86G A94G U130C, for which the self-cleavage is 0.86.

For U87C A110G A135U, the self-cleavage is 0.03.

A90G U103C U108C: the self-cleavage was determined as 0.

Take A94G C113U U122C U124C A134G: the self-cleavage amounted to 0.01.

Consider A91U U102C U122C, for which the self-cleavage was 1.88.

Consider C76A U102C U108C, for which the self-cleavage turned out to be 0.

Regarding A86U A90G A116G A125G U132C, the self-cleavage is 0.02.

In the case of U87C A96G U103A, the self-cleavage was determined as 0.83.

A78U U100C U130C: the self-cleavage was 0.77.

For A78U A89U U100C, the self-cleavage was 0.88.

On to A78U A86G A114G, for which the self-cleavage was 0.01.

U87C U97A U108C: the self-cleavage is 0.

As for A94G U100C C101U A114U U132C, the self-cleavage stood at 0.02.

On to A92G A118G U120A, for which the self-cleavage was determined as 1.7.

U72C A91G U120C A125G: the self-cleavage is 0.03.

For the variant A78G A110G A116G U132C, the self-cleavage stood at 0.02.

Turning to U72G U108C U120C, the self-cleavage was 0.01.

Take A90G U131A U132C: the self-cleavage was 1.38.

In the case of A82G U124A U132C, the self-cleavage turned out to be 0.13.

Take U72A U103C U120A: the self-cleavage amounted to 0.06.

On to A89G U103C A111G A126G, for which the self-cleavage is 0.01.

As for A91G U103C G123A, the self-cleavage was 0.66.

A82G U108A A117G: the self-cleavage came out at 0.02.

With A78G U103C A116G A140G, the self-cleavage stood at 0.13.

For A78G C81U A92G A116G, the self-cleavage was determined as 0.16.

For the variant A86G A94G U108C, the self-cleavage amounted to 0.01.

As to A91G A110U U127C, the self-cleavage was 0.39.

Consider C76G U100C A111U A126U, for which the self-cleavage worked out at 0.02.

Turning to A90G A116G U131C G136A G137A, the self-cleavage amounted to 0.13.

Turning to A78G A86C U133C, the self-cleavage amounted to 0.2.

Consider A89U A96G U124C, for which the self-cleavage came out at 1.18.

Regarding A82G A98G A116G, the self-cleavage amounted to 0.05.

With A82U U100A A110G U127C, the self-cleavage is 0.16.

For the variant U72C G83U U133C, the self-cleavage stood at 0.24.

In the case of A86G U103C U127C U131C, the self-cleavage was 0.33.

For U72A A111G A134G, the self-cleavage came out at 0.

For A86G A92G A118U, the self-cleavage is 0.62.

As for A92G A114G A134U, the self-cleavage was 0.2.

On to A78G U108C A116G A125G, for which the self-cleavage was 0.02.

On to A90G U122C A135G, for which the self-cleavage worked out at 0.85.

With A91G U102C A111G U122A, the self-cleavage came to 0.

Take U87C U100A A111C A117G: the self-cleavage stood at 0.01.

On to A90G U103C U124C, for which the self-cleavage turned out to be 0.62.

For the variant G75A A92G A117G A118G, the self-cleavage is 0.09.

For the variant A89U A92G A129U, the self-cleavage came to 1.57.

As for A82G A86U A91G, the self-cleavage is 0.43.

Regarding A78G A82G A94G, the self-cleavage worked out at 0.15.

A82G A91G U131C: the self-cleavage is 0.04.

Turning to G75A A91G A111G A117G A118G, the self-cleavage was 0.01.

Regarding U72A A90G U100C, the self-cleavage was determined as 0.72.

As to A86G A96G C105U, the self-cleavage came out at 0.28.

Regarding A94G A126G A129C, the self-cleavage was 0.19.

U87A A91G A95G: the self-cleavage came out at 1.32.

Turning to A86U A94G U122A U131C, the self-cleavage was determined as 1.22.

Consider A82U A90G C105U, for which the self-cleavage was determined as 0.01.

As to G84C A92G U133C, the self-cleavage came out at 0.38.

In the case of C77A A78G U122C, the self-cleavage was found to be 0.22.

On to G74U A86G A89G A90G G106A U108C, for which the self-cleavage is 0.01.

Consider A90G A98G A126G, for which the self-cleavage stood at 0.3.

For the variant A91G A94G U124C, the self-cleavage amounted to 0.51.

C76G A90G G106U U139A: the self-cleavage was 0.01.

As to G80U A82G G99U G106C U122C, the self-cleavage worked out at 0.

On to A78G G79A A96G U127C, for which the self-cleavage stood at 0.06.

For A78G A126G U131A, the self-cleavage came out at 0.14.

U87C U102C U124C: the self-cleavage is 0.71.

For the variant A78U C88A A94G A95U U124C A125U C128U, the self-cleavage came out at 0.17.

Take A94G A114U A118G: the self-cleavage was 0.02.

Consider A91G A110G C128U A129U U131C, for which the self-cleavage turned out to be 0.05.

As for C76A A78G A90C, the self-cleavage came to 0.07.

For A82G U87C A92G, the self-cleavage was found to be 0.33.

As to A89G A126C U127C, the self-cleavage came to 0.25.

In the case of A89G A114G U122C, the self-cleavage stood at 0.12.

On to A89U C105U A118G, for which the self-cleavage is 0.07.

As to A78G A111G A140G, the self-cleavage is 0.02.

For the variant A78U U102C U120C A129C, the self-cleavage came to 0.55.

For A86G A92G A116G, the self-cleavage was found to be 0.6.

In the case of U87C A126G U131C, the self-cleavage was 0.9.

For the variant A94G A117G U132C, the self-cleavage is 2.18.

Regarding A86G A90U A114G, the self-cleavage is 0.4.

On to A91U A95G U108C A116G A118G, for which the self-cleavage worked out at 0.

For the variant A86C G106A U133C, the self-cleavage is 0.01.

Regarding A86G A118G G119U U130C, the self-cleavage was 1.07.

A82C U103C U122A: the self-cleavage was found to be 0.04.

Consider U72C A111G A117G U122A, for which the self-cleavage worked out at 0.

On to A86G A90G U108C A129G, for which the self-cleavage was 0.02.

Consider A89G A118G U120C, for which the self-cleavage was 0.41.

As for U87A U102G U103A, the self-cleavage was determined as 0.11.

A89G A116G A118U: the self-cleavage turned out to be 0.32.

A92G C107U U120C: the self-cleavage was determined as 0.

Consider A78U U108C U122C, for which the self-cleavage was 0.01.

For A86G U108C A125U, the self-cleavage came to 0.01.

As to A86G A116G U122C, the self-cleavage came to 0.44.

Take U87C A90G U103A: the self-cleavage was determined as 0.1.

As for A78U A98G U130C, the self-cleavage was 0.05.

For U87A A114U A140G, the self-cleavage was 0.07.

For A89C A95G A111U A134G, the self-cleavage is 0.29.

Regarding A94G A117G U130C, the self-cleavage is 1.46.

For the variant A82G A91G A92G, the self-cleavage was found to be 0.41.

Regarding A89U A116U U131C, the self-cleavage stood at 0.23.

Consider A78U A82G U127C U132C, for which the self-cleavage was determined as 0.04.

Consider A86U A110G U122G, for which the self-cleavage is 0.06.

As for A90G U122A U132C, the self-cleavage was found to be 0.75.

Regarding U72C A96G A118U, the self-cleavage amounted to 0.05.

Regarding A82U A114G A140U, the self-cleavage was 0.05.

Consider A78G A96G U97A, for which the self-cleavage came to 0.35.

Take G80U U87C U139A: the self-cleavage is 0.16.

In the case of A94G C112G U139G, the self-cleavage came to 0.04.

A92U U102C C105U: the self-cleavage was found to be 0.55.

Regarding A94G A96G A126U, the self-cleavage came out at 1.1.

With A89U A96U U132C, the self-cleavage stood at 2.15.

A86G C109G U133C: the self-cleavage was determined as 0.02.

With U72C G80U A140G, the self-cleavage stood at 0.18.

On to U87C A95G A129U U132C, for which the self-cleavage came out at 0.86.

In the case of C77U U87C A92G A118G U132C, the self-cleavage is 2.37.

Turning to U72C C77A A78G A140U, the self-cleavage came to 0.25.

For the variant U87A A96G A129U, the self-cleavage was determined as 0.99.

Take A82G A117G U122C: the self-cleavage came out at 0.3.

As for G74A A94G U103C U130C U132C U139C, the self-cleavage was 0.04.

Take U87A A96U U122A: the self-cleavage stood at 1.74.

Consider A78G A90G U103C U132C, for which the self-cleavage was determined as 0.05.

On to A86C A126G A129U, for which the self-cleavage is 0.35.

For the variant G75A U103C A125C, the self-cleavage stood at 0.02.

As to U87A U127A U131A A134G, the self-cleavage worked out at 2.15.

Take A86U A94G A117G U131C: the self-cleavage was determined as 2.84.

Regarding U72C A89U U127C, the self-cleavage is 0.02.

In the case of A82G A114G U120C, the self-cleavage amounted to 0.02.

For the variant A92G U97C U103C, the self-cleavage stood at 0.68.

As for G75C A86U U102C U122C, the self-cleavage amounted to 0.12.

For A90G U103C A125G, the self-cleavage amounted to 0.06.

Turning to A90C U127A A134G, the self-cleavage was 1.79.

On to A82G A89G A96G U132C, for which the self-cleavage was determined as 0.

As for U72C C77A U103A, the self-cleavage came out at 0.06.

With A92C U108C U130C, the self-cleavage was 0.

In the case of A78U U87A U108C A118C, the self-cleavage was found to be 0.

A90C A96G G115U A118G U131C: the self-cleavage came out at 0.01.

For the variant G75U A86U A135U, the self-cleavage was found to be 0.09.

For A78G G104A A126G U131C, the self-cleavage came to 0.

In the case of A92G A117G U127C, the self-cleavage came out at 1.08.

As for A78G A95U A126G, the self-cleavage came out at 0.08.

In the case of G75A G79A A96U, the self-cleavage is 0.16.

Turning to A78U A89G A134G, the self-cleavage was determined as 0.31.

Regarding U87C A98G U100C A111U U130C, the self-cleavage was 0.03.

As to G93A A95G U122C A134G, the self-cleavage was determined as 2.55.

On to U87C U108A A111U, for which the self-cleavage was determined as 0.01.

Turning to A82G A95G U131C, the self-cleavage turned out to be 0.66.

Consider A90G U127C A135C, for which the self-cleavage is 1.01.

With G83U A95G G106A A125G, the self-cleavage is 0.

A90G A111G C128U: the self-cleavage came to 0.04.

As to G73A A94G U130C, the self-cleavage worked out at 0.17.

Consider A90G A95G U127A, for which the self-cleavage came out at 1.18.

For the variant A86G A91G A92G, the self-cleavage is 0.44.

Regarding A89U A111G U132C A135G, the self-cleavage was 0.01.

Take A78U U87C A111G: the self-cleavage stood at 0.02.

With A86G A110G C112U, the self-cleavage was 0.01.

With A78U A114G U122C, the self-cleavage came out at 0.02.

As for A90G A114G A134G, the self-cleavage came to 0.07.

On to A82U U97A U102C, for which the self-cleavage was found to be 0.37.

As to A78G A89U A116G, the self-cleavage was determined as 0.08.

For the variant A91U A95G A111U, the self-cleavage turned out to be 0.38.

For the variant U87C A91G A96C, the self-cleavage was 0.36.
